The values below come from patent publication US20110212091A1 (LICENTIA, published 2011).

For this assay, the target named is HA-tagged MT1-MMP (human, UniProt P50281 fragment). Put plainly: co-immunoprecipitation from co-transfected cells.

B1: FGFR4 R388, V5-His tagged (FGFR4R388-V5-His) (receptor, not shown: small tags and cut ends)
chain: not shown
notes: Expressed in transfected MDA-MB-231 or COS-1 cells and analysed from cell lysates; also called FGFR4 Arg388; V5-tagged FGFR4 R388
For B1, the binding result is given as “binds”.
